Cell viability data for 49 compounds are collected here from the supplement of paper PMC9588766.

Values joined by “and” are separate entries in the source; they are usually repeats but may differ in a detail not shown here. Identical values can stand only once. Counter-ions that a name gives are not always drawn. ± gives the standard deviation of the averaged measurements. Whole data set: some 2,000 compounds, median “cell viability relative to DMSO control (compound alone)” near 0.98, cut for the lowest 2% near 0.23. The list shows a part of the results.

This experiment deals with PDC-DUC18828. In words: cell viability relative to DMSO control (compound alone) (fraction); PDC-DUC18828 is a patient-derived cholangiocarcinoma cell line; higher = less growth inhibition. The note with it: 1 µM; 72 h. As to the method:
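Selleck Bioactive library screen in the patient-derived FGFR2-G3BP2 fusion-positive ICC cell line PDC-DUC18828 (500 cells/well). Each compound was tested at 1 uM alone, in triplicate, for 72 h. Viability was read by CellTiter-Glo and normalised to plate DMSO controls.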
Compound `CN(C)C(=S)NN=C(c1ccccn1)c1ccccn1` had a cell viability of 0.305 ± 0.012. In the case of `Nc1nc2n[nH]nc2c(=O)[nH]1` [Azaguanine-8], the cell viability came out at 1.08 ± 0.062. In the case of `CN(C)c1nc(N(C)C)nc(N(C)C)n1` [Altretamine], the cell viability amounted to 0.969 ± 0.042. The compound `COc1cc2c(Oc3ccc4[nH]c(C)cc4c3F)ncnc2cc1OCCCN1CCCC1` [Cediranib (AZD2171)] came in with a cell viability of 0.875 ± 0.031. Consider `CC(=O)O[C@]1(C(C)=O)CC[C@H]2[C@@H]3C[C@H](C)C4=CC(=O)CC[C@]4(C)[C@H]3CC[C@@]21C` [Medroxyprogesterone acetate], for which the cell viability was 1.01 ± 0.035. In the case of `O=C(O)c1cc(-c2ccccc2)nc2ccccc12` [Cinchophen] it was 1.04 ± 0.028; in that of `O=S(=O)(O)c1cc(O)ccc1O` [Ethamsylate], 1.04 ± 0.027; in that of `CCC(=O)O[C@]1(C(=O)CCl)[C@@H](C)C[C@H]2[C@@H]3CCC4=CC(=O)C=C[C@]4(C)[C@@]3(F)[C@@H](O)C[C@@]21C` [Clobetasol propionate], 0.949 ± 0.027.

In turn, `O=C1C[C@@H](c2ccc(O)cc2)Oc2cc(O)cc(O)c21` [Naringenin] registered a cell viability of 0.969 ± 0.051. In the case of `CCOC(=O)[C@H](CCc1ccccc1)N[C@H]1CS[C@H](c2cccs2)CN(CC(=O)O)C1=O` [Temocapril HCl] it was 1 ± 0.033; in that of `COc1ccc(F)c(F)c1C(=O)c1cnc(NC2CCN(S(C)(=O)=O)CC2)nc1N`, 0.705 ± 0.047. `CCCCC(F)(F)[C@@]1(O)CC[C@H]2[C@@H](CC(=O)[C@@H]2CCCCCCC(=O)O)O1` [Lubiprostone] yielded a cell viability of 1.04 ± 0.026. In the case of `COc1ccc(C2CNC(=O)C2)cc1OC1CCCC1` (centres undefined) [Rolipram] it was 1.03 ± 0.011; in that of `O=c1c(O)c(-c2ccc(O)cc2O)oc2cc(O)cc(O)c12` [Morin Hydrate], 0.888 ± 0.067.

For `OC[C@H]1O[C@@H](Oc2cc(O)cc(/C=C/c3ccc(O)cc3)c2)[C@H](O)[C@@H](O)[C@@H]1O` [Polydatin], the cell viability is 0.913 ± 0.051. In the case of `CC(=O)Nc1nc(C)c(-c2ccc(Cl)c(S(=O)(=O)NCCO)c2)s1` it was 0.897 ± 0.036; in that of `Cc1nc(=O)c2cc(CN(C)c3ccc(C(=O)N[C@@H](CCC(=O)O)C(=O)O)s3)ccc2[nH]1` [Raltitrexed], 0.973 ± 0.031. In the case of `CCCOc1ccn2c(C(C)=O)cc(-c3ccccc3S(C)(=O)=O)c2c1` it was 0.939 ± 0.0097. `CC(/C=C1\SC(=S)N(CC(=O)O)C1=O)=C\c1ccccc1` [Epalrestat] had a cell viability of 0.978 ± 0.068.

For `O=C1c2ccccc2C(=O)c2c1ccc(O)c2O` [Alizarin], the cell viability amounted to 0.993 ± 0.058. In the case of `CC(=O)[C@]1(O)Cc2c(O)c3c(c(O)c2[C@@H](O[C@H]2C[C@H](N)[C@H](O)[C@H](C)O2)C1)C(=O)c1ccccc1C3=O` [Idarubicin HCl] it was 0.122 ± 0.009; in that of `O=c1oc2ccccc2c(O)c1Cc1c(O)c2ccccc2oc1=O` [Dicoumarol], 1.04 ± 0.04; in that of `CS(=O)(=O)N1CCc2c(-c3cnc(N)nc3)nc(N3CCOCC3)nc21`, 0.895 ± 0.014. In the case of `CC[C@H](C)C(=O)O[C@H]1CCC=C2C=C[C@H](C)[C@H](CC[C@@H]3C[C@@H](O)CC(=O)O3)[C@H]21` [Mevastatin] it was 0.9666 ± 0.0066; in that of `Cc1ccccc1CN1C2=NCCN2C(=O)C2=C1CCN(Cc1ccccc1)C2` [TIC10 Analogue], 1.02 ± 0.045; in that of `Nc1cc(C(Cl)=C(Cl)Cl)c(S(N)(=O)=O)cc1S(N)(=O)=O` [Clorsulon], 1 ± 0.051. In the case of `C[C@H](CCC(=O)O)[C@H]1CC[C@H]2[C@@H]3[C@H](O)C[C@@H]4C[C@H](O)CC[C@]4(C)[C@H]3CC[C@]12C` [Chenodeoxycholic Acid] it was 0.982 ± 0.068; in that of `CC(C)CC(CC(=O)NO)C(=O)N[C@@H](Cc1ccc2ccccc2c1)C(=O)N[C@@H](C)C(=O)NCCN` (some centres undefined), 1.056 ± 0.0097. `C=CC(=O)Nc1cccc(Oc2nc(Nc3ccc(N4CCN(C)CC4)cc3OC)ncc2Cl)c1` displayed a cell viability of 0.978 ± 0.055. In the case of `O=C(/C=C/c1ccc(O)c(O)c1)OCCc1ccccc1` [Caffeic Acid Phenethyl Ester] it was 0.889 ± 0.013; in that of `CC(=O)OCC(CCn1cnc2cnc(N)nc21)COC(C)=O` [Famciclovir], 0.96 ± 0.047; in that of `COc1ccc([C@@H]2CC(=O)c3c(O)cc(O[C@@H]4O[C@H](CO)[C@@H](O)[C@H](O)[C@H]4O[C@@H]4O[C@@H](C)[C@H](O)[C@@H](O)[C@H]4O)cc3O2)cc1O` [Neohesperidin], 1.01 ± 0.041. In the case of `C[C@@H]1CCN(C(=O)CC#N)C[C@@H]1N(C)c1ncnc2[nH]ccc12`, the cell viability was 0.988 and 0.964.

For `C#CC[C@H](c1nc2cc(Cl)ccc2c(=O)n1Nc1ccccc1)N(CCCN)C(=O)c1cccc(Cl)c1F`, the cell viability was found to be 0.342 ± 0.017.

Compound `CCOC(=O)Nc1cc(-c2ccc(C)c(NS(C)(=O)=O)c2)nn2c(C)nnc12` [Bromosporine] registered a cell viability of 1.02 ± 0.056. In the case of `Cc1cc2c(F)c(Oc3ncnn4cc(OC[C@@H](C)OC(=O)[C@H](C)N)c(C)c34)ccc2[nH]1` it was 0.941 ± 0.024; in that of `O=S(=O)(O)NC1CCCCC1` [Cyclamic  acid], 0.925 ± 0.037. In the case of `COc1ccc([C@]2(C#N)CC[C@@H](C(=O)O)CC2)cc1OC1CCCC1` [Cilomilast] it was 1.05 ± 0.03. In the case of `O=C(NCCO)c1cccc(-c2cc(Nc3ccc(OC(F)(F)F)cc3)ncn2)c1` it was 0.988 ± 0.072.

`COCC[n+]1c2c(n(Cc3cnccn3)c1C)C(=O)c1ccccc1C2=O` [YM155 (Sepantronium Bromide)] gave a cell viability of 0.0109 ± 0.00065. In the case of `O=c1c(-c2ccc(O)cc2)coc2c([C@@H]3O[C@H](CO)[C@@H](O)[C@H](O)[C@H]3O)c(O)ccc12` [Puerarin] it was 0.896 ± 0.027. For the compound `Cc1cc(C)cc(C(=O)NOCCCCCC(=O)NO)c1`, the cell viability is 0.619 ± 0.048. With `Cc1cc([C@@H](C)Nc2ccccc2C(=O)O)c2nc(N3CCOCC3)cc(=O)n2c1`, the cell viability was found to be 0.945 ± 0.056. In the case of `CCOc1nc2cccc(C(=O)O)c2n1Cc1ccc(-c2ccccc2-c2noc(=O)[nH]2)cc1` [Azilsartan] it was 0.9 ± 0.021; in that of `COCCOC(=O)C1=C(C)NC(C)=C(C(=O)OC/C=C/c2ccccc2)C1c1cccc([N+](=O)[O-])c1` (centres undefined) [Cilnidipine], 0.969 ± 0.053.

`O=C(O)/C=C/c1ccc(Cn2ccnc2)cc1` [Ozagrel] gave a cell viability of 0.959 ± 0.063. In the case of `O=C(O)/C=C/c1ccc(Cn2ccnc2)cc1` [Ozagrel HCl] it was 1.06 ± 0.062; in that of `COc1cc2nccc(Oc3ccc(NC(=O)C4(C(=O)Nc5ccc(F)cc5)CC4)cc3)c2cc1OC`, 0.836 ± 0.024; in that of `CNC(=O)c1cc(COc2nnc(Nc3ccc(Cl)cc3)c3ccoc23)ccn1` [Telatinib], 1.06 ± 0.045.
